# The other results are listed elsewhere or left out.
# B1: LecB LY19 (Pseudomonas aeruginosa) (protein)
# chain: MATQGVFTLPANTQFGVTAFANSAGTQTVNVQVNNETVATFTGQSTNNGIIGSKVLNSGGGGKVQILVSVNGRSSDLVSAQVILANELNFALVGSEDSTDNDYNDAVVVINWPLG
# Legend:
# Experiment in all cases: glycan array binding signal (z-score within array); higher = stronger binding
# Details in all cases: glycan notation: IUPAC condensed, linker removed
# Fuc(a1-3)GlcNAc = biological target: Fuc(a1-3)GlcNAc
# In short: (§1)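 From the Consortium for Functional Glycomics database, 3228 arrays were curated, keeping only those whose protein sequence was available. Binding is given as a within-array Z-score averaged across arrays sharing a protein sequence and across linkers. Negative Z-scores can be read as non-binding.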
# [1] = biological target: Fuc(a1-3)[Gal(b1-4)]Glc6S
# In short: as §1
# [2] = biological target: Fuc(a1-3)[Gal(b1-4)]GlcNAc
# In short: as §1
# [3] = biological target: Fuc(a1-3)[Gal(b1-4)]GlcNAc(b1-2)Man
# In short: as §1
# [4] = biological target: Fuc(a1-3)[Gal(b1-4)]GlcNAc(b1-2)Man(a1-3)[Fuc(a1-3)[Gal(b1-4)]GlcNAc(b1-2)Man(a1-6)]Man(b1-4)GlcNAc(b1-4)GlcNAc
# In short: as §1
# [5] = biological target: Fuc(a1-3)[Gal(b1-4)]GlcNAc(b1-2)Man(a1-3)[Fuc(a1-3)[Gal(b1-4)]GlcNAc(b1-2)Man(a1-6)]Man(b1-4)GlcNAc(b1-4)[Fuc(a1-6)]GlcNAc
# In short: as §1
# [6] = biological target: Fuc(a1-3)[Gal(b1-4)]GlcNAc(b1-3)Gal(b1-3)[Fuc(a1-4)]GlcNAc
# In short: as §1
# [7] = biological target: Fuc(a1-3)[Gal(b1-4)]GlcNAc(b1-3)Gal(b1-4)[Fuc(a1-3)]GlcNAc
# In short: as §1
# [8] = biological target: Fuc(a1-3)[Gal(b1-4)]GlcNAc(b1-3)Gal(b1-4)[Fuc(a1-3)]GlcNAc(b1-3)Gal(b1-4)[Fuc(a1-3)]GlcNAc
# In short: as §1
# [9] = biological target: Fuc(a1-3)[Gal(b1-4)]GlcNAc(b1-3)GalNAc
# In short: as §1
# [10] = biological target: Fuc(a1-3)[Gal(b1-4)]GlcNAc(b1-6)GalNAc
# In short: as §1
# [11] = biological target: Fuc(a1-3)[Gal(b1-4)]GlcNAc(b1-6)[Gal(b1-3)GlcNAc(b1-3)]Gal(b1-4)Glc
# In short: as §1
# [12] = biological target: Fuc(a1-3)[Gal(b1-4)]GlcNAc6S
# In short: as §1
# [13] = biological target: Fuc(a1-3)[Gal3S(b1-4)]Glc
# In short: as §1
# [14] = biological target: Fuc(a1-3)[Gal3S(b1-4)]GlcNAc
# In short: as §1
# [15] = biological target: Fuc(a1-3)[Gal3S(b1-4)]GlcNAc6S
# In short: as §1
# [16] = biological target: Fuc(a1-3)[GalNAc(b1-4)]GlcNAc
# In short: as §1
# [17] = biological target: Fuc(a1-3)[GalNAc(b1-4)]GlcNAc6S
# In short: as §1
# Fuc(a1-4)GlcNAc = biological target: Fuc(a1-4)GlcNAc
# In short: as §1
# Fuc(b1-3)GlcNAc = biological target: Fuc(b1-3)GlcNAc
# In short: as §1
# Gal(a1-2)Gal = biological target: Gal(a1-2)Gal
# In short: as §1
# Gal(a1-3)Gal = biological target: Gal(a1-3)Gal
# In short: as §1
# Gal(a1-3)Gal(b1-3)GlcNAc = biological target: Gal(a1-3)Gal(b1-3)GlcNAc
# In short: as §1
# [18] = biological target: Gal(a1-3)Gal(b1-3)GlcNAc(b1-2)Man
# In short: as §1
# [19] = biological target: Gal(a1-3)Gal(b1-3)GlcNAc(b1-2)Man(a1-3)[Gal(a1-3)Gal(b1-3)GlcNAc(b1-2)Man(a1-6)]Man(b1-4)GlcNAc(b1-4)GlcNAc
# In short: as §1
# [20] = biological target: Gal(a1-3)Gal(b1-3)GlcNAc(b1-3)GalNAc
# In short: as §1
# [21] = biological target: Gal(a1-3)Gal(b1-3)GlcNAc(b1-6)GalNAc
# In short: as §1
# [22] = biological target: Gal(a1-3)Gal(b1-3)[Fuc(a1-4)]GlcNAc(b1-2)Man(a1-3)[Gal(a1-3)Gal(b1-3)[Fuc(a1-4)]GlcNAc(b1-2)Man(a1-6)]Man(b1-4)GlcNAc(b1-4)GlcNAc
# In short: as §1
# Gal(a1-3)Gal(b1-4)Glc = biological target: Gal(a1-3)Gal(b1-4)Glc
# In short: as §1
# Gal(a1-3)Gal(b1-4)GlcNAc = biological target: Gal(a1-3)Gal(b1-4)GlcNAc
# In short: as §1
binder,measurement,setting,value
B1,glycan array binding signal (z-score),Fuc(a1-3)GlcNAc,2.1
same,glycan array binding signal (z-score),[1],-0.031
same,glycan array binding signal (z-score),[2],1.65
same,glycan array binding signal (z-score),[3],0.065
same,glycan array binding signal (z-score),[4],1.1
same,glycan array binding signal (z-score),[5],-0.153
same,glycan array binding signal (z-score),[6],0.312
same,glycan array binding signal (z-score),[7],1.83
same,glycan array binding signal (z-score),[8],2.77
same,glycan array binding signal (z-score),[9],0.487
same,glycan array binding signal (z-score),[10],-0.348
same,glycan array binding signal (z-score),[11],0.618
same,glycan array binding signal (z-score),[12],-0.4
same,glycan array binding signal (z-score),[13],0.602
same,glycan array binding signal (z-score),[14],0.777
same,glycan array binding signal (z-score),[15],0.766
same,glycan array binding signal (z-score),[16],1.08
same,glycan array binding signal (z-score),[17],1.09
same,glycan array binding signal (z-score),Fuc(a1-4)GlcNAc,2.24
same,glycan array binding signal (z-score),Fuc(b1-3)GlcNAc,0.465
same,glycan array binding signal (z-score),Gal(a1-2)Gal,-0.527
same,glycan array binding signal (z-score),Gal(a1-3)Gal,-0.538
same,glycan array binding signal (z-score),Gal(a1-3)Gal(b1-3)GlcNAc,-0.523
same,glycan array binding signal (z-score),[18],-0.556
same,glycan array binding signal (z-score),[19],0.397
same,glycan array binding signal (z-score),[20],-0.551
same,glycan array binding signal (z-score),[21],-0.549
same,glycan array binding signal (z-score),[22],1.36
same,glycan array binding signal (z-score),Gal(a1-3)Gal(b1-4)Glc,-0.512
same,glycan array binding signal (z-score),Gal(a1-3)Gal(b1-4)GlcNAc,-0.541
